B1: chr17:37360870:37360871:+_ENSG00000108298_ENST00000225430|hu_hu|FALSE|FALSE (ssRNA)
RNA: GGGAGUUCUACAGUCCGACGAUCCAGUAUGUACAGACAAAGUGGGAGGUUUUAUUUCUUGGUCUCUUCCUCCUUGGAUAAAGUCUUGAUGAUCUCCUCCUUCUUGGCCUGGAGGCGCUCUUCACGGCGCUUGCGUGCUUCCUUCAACAGAGGAUUGAGCAUCA
B2: chr10:71921676:71921677:-_ENSG00000079332_ENST00000373241|hu_hu|FALSE|FALSE (ssRNA)
RNA: GGGAGUUCUACAGUCCGACGAUCCACACUGCUGAAGCCAUUGUAGAUCCACUCAAAGAUGAAAGACAUUAUUAAUGCUUACUACGGCCUGAGGGGCUCCUCCGGCAAAACAGCGGCUGGCUCGGACCCUCCCUCAGAGCACACCAACAGAGGAUUGAGCAUCA
B3: chr7:135612270:135612271:-_ENSG00000105887_ENST00000393085|hu_mus|hu_hu_hu_mus_False|38_58 (ssRNA)
RNA: GGGAGUUCUACAGUCCGACGAUCGUUUUUUUCUGAGAUGUUAAAUAGUACUUCAGUGGAAAACAAAACUUAACCUUUCGCUAAUGCGUGUUGUACCAGAAAGCAAAAUUUUAGCUUCAUUUAUUCAAAAAUAUUAACAUUAAGCAACAGAGGAUUGAGCAUCA
B4: chr14:45963330:45963331:+_ENSMUSG00000021832_ENSMUST00000022380|perfect_dup|FALSE|FALSE (ssRNA)
RNA: GGGAGUUCUACAGUCCGACGAUCGAUUUUCAAUAUAUCUAAUCUUGCUUGUUCAUUUGGUAAAUCGAUAUGUAUUUUUCUAUCUAAUCUUCCUGGGCGCAGCAAAGCAGGAUCCAGUGUAUCUGGUCUGUUUGUAGCCAUGAUCAACAGAGGAUUGAGCAUCA
B5: 136597645_136599121_1188_CDS_ENSG00000029363_ENST00000527536|human|control|control (ssRNA)
RNA: GGGAGUUCUACAGUCCGACGAUCCCUUUUUAAGAACUUCCCAGUCUUUGCAGUUUCCUGAUCUCCACCAUCAGGAUAAAACGAGGAACGGCCCCUAGACUCAUCUCUUGGAGCAUUCUGUGGUGCGAUUGUCUUUGCAGGACUCAACAGAGGAUUGAGCAUCA
B6: chr9:109012998:109012999:+_ENSMUSG00000053646_ENSMUST00000072093|mus_mus|FALSE|FALSE (ssRNA)
RNA: GGGAGUUCUACAGUCCGACGAUCGUUGCCCAUCUGUACCGUGAACUCAGGCAAAGCAUCUGGAGCCUCUCGGAGGGCAUGGGGAUGUGGCAGGGGCUGCUCCACAGGGGGCUCACAGUACAGGUGGUUCCGGGUCAGUGUCUUCAACAGAGGAUUGAGCAUCA
B7: chr7:116176368:116176369:+_ENSMUSG00000031028_ENSMUST00000033341|mus_hu|motif|central (ssRNA)
RNA: GGGAGUUCUACAGUCCGACGAUCAGACACACACAUACACAGACGGACACAGAGCACCUUGGAGCCAGAAGGAAAGGAAAGCGGGACUUGGAGAAGAGUUGGGGAAGUGAACUUCACCACUCUGCAGAAUUGUUCUGGGGCAGACAACAGAGGAUUGAGCAUCA
B8: chrX:71549400:71549401:+_ENSMUSG00000019087_ENSMUST00000019231|mus_hu|mus_mus_mus_hu_False|18_88 (ssRNA)
RNA: GGGAGUUCUACAGUCCGACGAUCGCAGUAGGAAGAGGGAAGCUCUUCAUCCACUGUCGCUGCAGGGUGGGAAAGCAACAACACGGACACCGUCCCACCCUCAACCCCCCCACUGGCAUGUCACACAACAAUCUGGGUCAAAGACAACAGAGGAUUGAGCAUCA
B9: chr19:12856456:12856457:+_ENSG00000198356_ENST00000357332|hu_mus|FALSE|FALSE (ssRNA)
RNA: GGGAGUUCUACAGUCCGACGAUCCACGAUGGUCGGGAAGUUCAGGAGCCUGAGUGUAUGGCCGGUGGGUGCUGUGUCGAACACUACCACUGAGAAGUUCAUGCCUUUCACCAGCCUCAUGACCUCAGCAUAACUCAUGGCUUCCAACAGAGGAUUGAGCAUCA
B10: chr12:98992399:98992400:+_ENSG00000075415_ENST00000552981|hu_hu|FALSE|FALSE (ssRNA)
RNA: GGGAGUUCUACAGUCCGACGAUCUUUGGGAGCUGCAUCCCUCAAAGUGUUGGCAUAACCUGGCUGGGUUUGAAUUCGAACCUUAGCAGCUUCCAUAGGAGCCAGGGCAAUGUCAGCAAAGAAUUCAGCACUGGCAGAGGCAGCCAACAGAGGAUUGAGCAUCA
B11: chr2:49626764:49626765:+_ENSMUSG00000026764_ENSMUST00000028102|mus_mus|FALSE|FALSE (ssRNA)
RNA: GGGAGUUCUACAGUCCGACGAUCCAAGCACGUAUCUGUGCACACAAAUUCUACACAGCGCAAACACCUGAAUCUGGUGUACUACAGACGGCUGGGCAAGCAAGUGUAAAAAGAAACGGAAACUGUAUAGGAGGGGACAGAAAGCAACAGAGGAUUGAGCAUCA
B12: chr2:155973683:155973684:-_ENSMUSG00000027620_ENSMUST00000109587|mus_hu|motif|central (ssRNA)
RNA: GGGAGUUCUACAGUCCGACGAUCCAUGAACAUUUUAAAAGGCAGAACAAGAGAACAGUUUUGUAUACAGUGGGAUUUACGGUUUAGGGAGAAUGAGCACACUGCAUUCCUGUUAACAUUUUUAUUUUUUCAAGGUAACAGGAACAACAGAGGAUUGAGCAUCA
B13: 6378618_6387458_547_CDS_ENSG00000097021_ENST00000608083|human|control|control (ssRNA)
RNA: GGGAGUUCUACAGUCCGACGAUCGUAGCUGACAGUGUUCGGCUCUGGGUUGAGGACUGGCUGGACGAUGUCCCCGUUCCUCCACUUGGUCUCCAUGCGCUCCAGCUUCUGGGCUUCAUACCGCUUCCGGCCCUCCUCCUCCUGCAACAGAGGAUUGAGCAUCA
B14: chr2:122217683:122217684:-_ENSG00000074054_ENST00000409078|hu_mus|motif|central (ssRNA)
RNA: GGGAGUUCUACAGUCCGACGAUCACGCAAGUGUUGAAAGAAGUUAUCGUACUCAGCAGCCCCAGCCAAGAGUAACGAUCGGAUCUUUUUUAGAGCAUUUACUCUCUGCUCCCAGUCAUGCUUGUCAUCUGACAGGAUUUCUCUCAACAGAGGAUUGAGCAUCA
B15: chr18:77733610:77733611:-_ENSG00000141759_ENST00000592957|hu_mus|FALSE|FALSE (ssRNA)
RNA: GGGAGUUCUACAGUCCGACGAUCCUCAUCUCACGGAUCCUCCAGCUCUACAGCAAUGUCGGGCUGCAGGGCCUUUCCAGAGGCUACGAGAGCAGAGUAUUUCUAUGUGGAAGAGGCUCUCAGUGUCCUUUGCACAGCCUGAGGCAACAGAGGAUUGAGCAUCA
B16: chr10:60895279:60895280:-_ENSMUSG00000020091_ENSMUST00000020288|mus_hu|FALSE|FALSE (ssRNA)
RNA: GGGAGUUCUACAGUCCGACGAUCCACUGGAAGAUGUUUAAUUAAAAAGUUGCUGUUCAAAAUUGUACUGAAAACAUAUCUAAAAAUAGGUCUGUAGUCAUCUUAAAAAUAAAAGGUCACUUCUCAGAUAAGAGGAGUGACAGACAACAGAGGAUUGAGCAUCA
B17: chr11:114320625:114320626:+_ENSG00000076043_ENST00000544827|hu_hu|motif|central (ssRNA)
RNA: GGGAGUUCUACAGUCCGACGAUCAACUCACGGUCUUCUCAUUUUCCCCAUUUUCUAUAAUUUUCCUCUUCUUUUCAUCGGUUUUUUUCUUGAAGAUGUUAUUUCGGUAAAACUGAAGCUCUUUGAUGCUUUCACUAAUGUCAUCAACAGAGGAUUGAGCAUCA
B18: chr18:74380996:74380997:+_ENSMUSG00000024560_ENSMUST00000025444|mus_hu|FALSE|FALSE (ssRNA)
RNA: GGGAGUUCUACAGUCCGACGAUCGUCGACGGGGACAGUCCCUCUGAUAAAGGCAGAUGGGCGGUCAACCGGUGGAUGGGCACAGGGAGAACCGGAGAAACAGAUGAGUGGAGGAACGGACACACGGGCACCGGGCGGCUCCCCCAACAGAGGAUUGAGCAUCA
B19: chr11:77336104:77336105:-_ENSG00000074201_ENST00000525064|hu_mus|hu_hu_hu_mus_False|8_78 (ssRNA)
RNA: GGGAGUUCUACAGUCCGACGAUCCUCACACAUUGCUGUGAACAUCGCCUCCAAUGCUGAUUUAUCACUGGGCACAAAUCGAAAUUCAGAAAUGGGUUCAACAUCAUCAUUGUCUUCCUCAUCUUCAUCAUCAGCAAGUUCUUUCAACAGAGGAUUGAGCAUCA
B20: chr9:15127005:15127006:-_ENSMUSG00000046111_ENSMUST00000161132|mus_mus|FALSE|FALSE (ssRNA)
RNA: GGGAGUUCUACAGUCCGACGAUCCCAGAUUGGAAUAGGGCUCCGAAAUGGACAGGAUUUUAAUAUGUGCUCUGCUUGUGCUAGCUGACAUACAUUUCCUACAGCUUCUGUAGUGUCAGUUUCAAUGAAGUUCUGAAUUGGCUUCAACAGAGGAUUGAGCAUCA
B21: chr17:65740002:65740003:+_ENSG00000130935_ENST00000581375|hu_hu|hu_hu_hu_mus_False|28_68 (ssRNA)
RNA: GGGAGUUCUACAGUCCGACGAUCAACAAAUCUUUCUUCCCUGGACGAACAGGAAGAUUCAUAUUAACUUUAUAAAAUAUCCAUCAAGUUAGGUGUGGUGGCCACACAGAGCUCCAGAGCACUUUGGGAGGUGGAUCUCUGAGUCAACAGAGGAUUGAGCAUCA
B22: chr7:7679991:7679992:-_ENSG00000106399_ENST00000396682|hu_hu|FALSE|FALSE (ssRNA)
RNA: GGGAGUUCUACAGUCCGACGAUCUGGGAUGAAUCUUUUCCAGCCUCCCUACGAAGCAGACAGGCUUGUCGAUGAAUUGAGCUAGCAUGCCGGCGUUGAUGCGCGACCUGGGCAAGUCCAUCAUGUCCACCAUGAUUAUGGUCCCAACAGAGGAUUGAGCAUCA

The other results are listed elsewhere or left out.

The target in this test is T1, UNK ZnF1-3 (human, UniProt Q9C0B0 31-174).
T1 sequence: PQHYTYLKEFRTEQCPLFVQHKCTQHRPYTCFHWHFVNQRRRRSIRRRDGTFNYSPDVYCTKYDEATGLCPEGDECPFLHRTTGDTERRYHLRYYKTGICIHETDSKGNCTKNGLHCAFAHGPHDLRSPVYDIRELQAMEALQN
As to the kind of experiment: nsRBNS (natural sequence RNA bind-n-seq); RBNS binding buffer (assumed for nsRBNS): 25 mM Tris pH 7.5, 150 mM KCl, 3 mM MgCl2, 0.01% Triton X-100, 500 ug/ml BSA, 20 U/ml SUPERase-In, 4 C; UNK is unkempt and MSI1 is Musashi-1; names of the RNAs are library labels; protein concentration not given here; high values mean tight binding.
The molecule B1 registered a binding signal of 0.649 enrichment R.
B2 displayed a binding signal of 1.19 enrichment R.
Regarding B3, the binding signal was determined as 0.573 enrichment R.
The value for B4 was 0.578 enrichment R.
The figure for B5 is 0.776 enrichment R; for B6 it is 0.77 enrichment R; for B7 it is 2.65 enrichment R.
Regarding B8, the binding signal came out at 0.927 enrichment R.
The figure for B9 is 0.738 enrichment R; for B10 it is 1.1 enrichment R; for B11 it is 1.79 enrichment R.
The figure for B12 is 1.32 enrichment R.
The value for B13 was 0.536 enrichment R; that for B14 was 0.734 enrichment R.
B15 gave a binding signal of 0.833 enrichment R.
The molecule B16 gave a binding signal of 1.66 enrichment R.
The value for B17 was 0.459 enrichment R.
With B18, the binding signal is 1.99 enrichment R.
The value for B19 was 0.91 enrichment R; that for B20 was 0.664 enrichment R; that for B21 was 1.3 enrichment R.
The figure for B22 is 1.02 enrichment R.
